Data published in publication PMC4336329 (PLoS ONE, 2015).
Hit rate of the full screen: of about 310,000 compounds, about 14,000 (4.5%) showed an effect of 50% or more. Effects have a minus sign here. The list shows a part of the results.

target: human ether-à-go-go-related gene (hERG) potassium channel (human, UniProt Q12809); assay: primary screen, population patch clamp on CHO cells stably expressing hERG
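Further: peak tail current of the secondary pulse compared with the same well before compound.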

Chain of human ether-à-go-go-related gene (hERG) potassium channel (Q12809 whole entry, looked up): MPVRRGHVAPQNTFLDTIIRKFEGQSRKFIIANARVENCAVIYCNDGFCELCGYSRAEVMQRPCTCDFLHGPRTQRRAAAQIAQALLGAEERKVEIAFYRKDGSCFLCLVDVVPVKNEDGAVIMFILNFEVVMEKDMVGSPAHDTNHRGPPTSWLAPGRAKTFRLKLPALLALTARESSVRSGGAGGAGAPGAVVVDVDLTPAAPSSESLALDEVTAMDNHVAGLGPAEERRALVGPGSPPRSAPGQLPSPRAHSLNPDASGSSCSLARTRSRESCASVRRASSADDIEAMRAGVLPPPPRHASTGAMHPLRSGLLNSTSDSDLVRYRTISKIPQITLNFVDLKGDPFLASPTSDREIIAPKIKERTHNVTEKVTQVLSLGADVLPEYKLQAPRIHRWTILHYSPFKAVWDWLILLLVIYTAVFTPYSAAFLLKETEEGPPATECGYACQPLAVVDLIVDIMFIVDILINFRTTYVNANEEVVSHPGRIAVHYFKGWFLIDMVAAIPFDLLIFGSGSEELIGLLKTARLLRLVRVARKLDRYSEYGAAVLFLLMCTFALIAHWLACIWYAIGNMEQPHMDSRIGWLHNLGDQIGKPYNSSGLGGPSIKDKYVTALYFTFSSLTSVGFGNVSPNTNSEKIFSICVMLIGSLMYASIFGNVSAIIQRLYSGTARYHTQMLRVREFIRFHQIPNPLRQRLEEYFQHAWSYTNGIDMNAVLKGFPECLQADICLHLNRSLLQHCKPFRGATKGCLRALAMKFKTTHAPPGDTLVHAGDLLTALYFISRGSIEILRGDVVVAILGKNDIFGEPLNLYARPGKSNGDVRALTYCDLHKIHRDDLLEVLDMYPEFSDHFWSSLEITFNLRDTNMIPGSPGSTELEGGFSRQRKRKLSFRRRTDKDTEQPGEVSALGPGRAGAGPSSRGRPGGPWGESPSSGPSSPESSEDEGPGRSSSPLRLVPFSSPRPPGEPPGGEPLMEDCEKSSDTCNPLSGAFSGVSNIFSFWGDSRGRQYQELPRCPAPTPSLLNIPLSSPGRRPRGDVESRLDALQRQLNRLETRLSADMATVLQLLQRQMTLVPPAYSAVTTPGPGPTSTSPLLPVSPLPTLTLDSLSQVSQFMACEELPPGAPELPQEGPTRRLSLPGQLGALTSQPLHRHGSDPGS

| SMILES | hERG current change (%, negative = inhibition) at 10uM [%] |
| --- | --- |
| COc1ccc(-n2nc3c(N4CCC(C(=O)NCC(C)c5ccccc5)CC4)nnc(C)c3c2C)cc1 (stereo not shown) | -32.6 |
| CC1CCCN(C(=O)c2ccc(OC3CCN(CCc4ccccc4)CC3)cc2)C1 (stereo not shown) | -58.1 |
| CCc1cccc2c1Sc1ccccc1CC2N1CCNCC1.CS(=O)(=O)O (stereo not shown) | -31.1 |
| Cc1ccc(S(=O)(=O)N2CCN(C(=O)c3cccc(-n4cccc4)c3)CC2)cc1 | -51.3 |
| COc1ccc(CCNC(=O)CSc2nnnn2C)cc1OC | 43.3 |
| COC(=O)C1=C(N)Oc2c(oc(CO)cc2=O)C1c1ccccc1F (stereo not shown) | 9.97 |
| CC(=O)Nc1ccc(Oc2cc(NC(C)=O)cc([N+](=O)[O-])c2)cc1 | 6.36 |
| CCCCCCOc1ccc(OC(=O)c2ccncc2)cc1 | 6.12 |
| CCOC(=O)N1CCN(S(=O)(=O)N2CCCC(C(=O)NCCCN3CC(C)CC(C)C3)C2)CC1 (stereo not shown) | 18.9 |
| CCC/C(=N/Nc1ccc(Cl)cc1)c1cnnc(-c2ccccc2)n1 | -10.2 |
| C/C(CC(=O)Nc1cccnc1)=N/NC(=O)COc1ccc(Cl)cc1Br | -6.52 |
| Cc1ccc(CN2CCN(Cc3ccccc3F)CC2)cc1.O=C(O)C(=O)O | -12.2 |
| COC(=O)C1=C(c2ccc(C(C)=O)cc2)C[C@@H]2CC[C@H]1N2C(=O)NCCNC(C)=O | 26 |
| CCn1ncc([N+](=O)[O-])c1C(=O)Nc1ccc(C)c(C)c1 | -6.38 |
| COCCN(C(=O)CC1CCCC1)c1c(N)n(CC(C)C)c(=O)[nH]c1=O | 1.4 |
| COc1ccccc1CNC(=O)CCS(=O)(=O)Cc1ccc(C)cc1 | 11.3 |
| O=C(C1CCN(S(=O)(=O)N2CCCC2)CC1)N1CCCCC1 | 4.84 |
| Cc1cc(C)c(NC(=O)COc2nc3ccccc3nc2C)c(C)c1 | 19.2 |
| CC1(C)CC(=O)C2=C(C1)OC(N)=C(C#N)C21C(=O)N2CCCc3cccc1c32 (stereo not shown) | 23.5 |
| Cc1ccc2c(c1)[C@@H]1CN(C)CC[C@@H]1N2S(=O)(=O)c1ccc([N+](=O)[O-])cc1.Cl | -75 |
| CCn1ncc([C@@H]2C[C@H]3CN(Cc4ccccc4C)C(=O)[C@]34CCCN24)c1C | 17.7 |
| CCc1ccc(NC(=O)CSc2nnnn2C)cc1 | 16.5 |

| SMILES | hERG current change (%, negative = inhibition) at 10uM [%] |
| --- | --- |
| Cc1occc1-c1nnc(SCC(=O)c2cc3ccccc3oc2=O)o1 | 8.73 |
| CC(=O)NC(Cc1cccc(F)c1)C(=O)NC1CCN(C(=O)Nc2ccccc2)CC1 (stereo not shown) | 8.24 |
| O=C(NNC(=O)c1cc(-c2cccc(Br)c2)nc2ccccc12)c1csc(N2CCOCC2)n1 | -12 |
| C=CCn1c(SCC(=O)c2ccc(O)c(O)c2)nnc1-c1cccnc1 | 19.8 |
| Cc1ccc(C(=O)OCC(=O)Nc2cccc(S(=O)(=O)N3CCCCC3)c2)o1 | 6.02 |
| O=C(COC(=O)c1ncc(Cl)c(Cl)c1Cl)Nc1cccnc1Cl | 16.1 |
| O=S(=O)(c1ccc(NC(=S)NCc2ccc(F)cc2)cc1)N1CCOCC1 | -36.4 |
| O=C(O)C1(c2ccccc2)CCN(S(=O)(=O)c2ccc(Br)cc2)CC1 | 11.7 |
| COc1ccc(Cc2nnc(NC(=O)Cn3cnc4c3c(=O)n(C)c(=O)n4C)s2)cc1 | 12.1 |
| O=C(CCCc1nc(-c2ccccc2)no1)Nc1cccnc1 | 12 |
| CS(=O)(=O)N1CCN(C(=N)N[N+](=O)[O-])CC1 | 33.1 |
| Cc1cc(NC(=O)c2cc(-c3ccco3)on2)n(-c2ccccc2)n1 | -0.313 |
| NC(=S)Cc1nc2n(n1)Cc1ccccc1-2 | 21.6 |
| CCCCCCCNc1nc(Cl)nc(NCCO)n1 | -7.98 |
| C=CCOc1ccc(/C=C/C(=O)OCC(=O)NCCCc2ccccc2)cc1 | -3.58 |
| CCCc1nc2oc3cc(OC)ccc3c(=O)c2c(=O)n1CCc1ccccc1 | -38.3 |
| COc1ccc(Cn2nnc3c(C)n[nH]c(=O)c32)cc1 | 9.86 |
| CC(C(=O)NCc1ccccc1Cl)n1cc([N+](=O)[O-])cn1 (stereo not shown) | 4.65 |
| COc1ccc(CN2C3CCCC2CC(NC(=O)c2cccc(F)c2)C3)cc1 (stereo not shown) | -82 |
| O=C(NCc1cccs1)C1CCCN(C(=O)Nc2ccccc2)C1 (stereo not shown) | 3.13 |
| O=C(O)CCn1cc(C(=O)O)c(-c2ccccc2)n1 | 17.9 |
| CCCOc1cc(C)c(Cl)cc1S(=O)(=O)N(CC)CC | -10.9 |

| SMILES | hERG current change (%, negative = inhibition) at 10uM [%] |
| --- | --- |
| Cc1cc(C)n2c(SCCC(C)C)nnc2n1 | -31.9 |
| Cc1ccc(/C=C(\C#N)C(=O)N2CCCC2)c(C)c1 | 33.4 |
| CCc1ccc2nc(Nc3ccc(OC)cc3OC)c(C#N)cc2c1 | -2.62 |
| COC(=O)NC(=S)N1CCOCC1 | 0.991 |
| COc1ccc(C(=O)C2CCN(C(=O)c3ccco3)CC2)cc1 | -13.4 |
| CC1CCc2c(C(=O)OCC(=O)Nc3cccc(S(=O)(=O)N4CCCCCC4)c3)csc2C1 (stereo not shown) | 11.7 |
| Nc1ccc2c3c(cccc13)CC2 | -4.28 |
| CC(C)c1cc(C(=O)N/N=C/c2c[nH]c3ccccc23)n[nH]1 | 11.3 |
| COC(=O)C1=C(C)OC(N)=C(C#N)C1c1ccc(OC)c(CSc2ccccn2)c1 (stereo not shown) | -25.8 |
| O=C(O)COn1c(-c2ccc(Cl)cc2)nc2ccc(Cl)cc21 | 21 |
| O=C(NCc1ccco1)C12CN(Cc3ccccc3)CC1C(c1ccc([N+](=O)[O-])cc1)=NO2 (stereo not shown) | -70.8 |
| O=C(NCCCn1ccnc1)Nc1cccc2ccccc12 | 11.9 |
| COc1ccccc1NS(=O)(=O)c1cc(NC(=S)NCCN2CCOCC2)ccc1N1CCOCC1 | -22.9 |
| Cc1cc(=O)oc2c(C)c(OCC(=O)NCCCN3CCCC3=O)ccc12 | 13 |
| CCOc1ccc(N/N=C(/C#N)C(N)=O)cc1 | 1.91 |
| Cc1cc(C)cc(NC(=O)CCC(=O)Nc2cc(C)on2)c1 | 8.01 |
| COc1ccc(-n2c(C)cc(C(=O)CSc3nn4c(=O)c(C(C)(C)C)nnc4s3)c2C)cc1 | -4.76 |
| CCOc1cc(C(=O)Nc2ccc3c(c2)OCO3)ccc1OCCOc1ccccc1Cl | 11 |
| CCCCn1c(=O)[nH]c(=O)c2c1nc(COC(=O)c1c(C)noc1C)n2CCC | -45.6 |
| Cc1onc(-c2c(F)cccc2Cl)c1C(=O)OCN1C(=O)c2ccccc2C1=O | -8.71 |
| Br.c1ccc2oc(SCc3cn4ccsc4n3)nc2c1 | -12.9 |
| Cc1ccc(S(=O)(=O)NCC(=O)N2CCc3ccccc3C2)cc1 | -4.13 |

| SMILES | hERG current change (%, negative = inhibition) at 10uM [%] |
| --- | --- |
| Cc1ccc(S(=O)(=O)NCCC(=O)Nc2ncccc2O)cc1C | 10.4 |
| COc1ccc(-c2cn3ccc4ccccc4c3n2)cc1 | 7.17 |
| Cc1ccc(CNC(=O)c2cc(=O)c3cc(C)ccc3o2)cc1 | 18.7 |
| Cc1cc(C)nc(NC(=O)COc2cc(Cl)cc(Cl)c2)n1 | 1.44 |
| COc1ccc(C2CC(c3cccs3)=NN2C(=O)CSc2nc(=O)n3ccc(C)cc3n2)cc1 (stereo not shown) | -65.4 |
| Fc1ccccc1Cn1nnc2c(NCCc3ccccn3)ncnc21 | -17.2 |
| CCN(CC)CCn1c(SCC(=O)NCc2ccco2)nc2c(sc3ccccc32)c1=O | -68.2 |
| CCC(=O)N1CCc2cc(S(=O)(=O)NCCC(=O)Nc3ccc(OC)cc3)ccc21 | -26 |
| Cn1c(C(=O)Nc2ccc3c(c2)OCO3)cc2c(=O)n(C)c3ccccc3c21 | 1.76 |
| O=C(OCCCCOC(=O)c1ccccc1)c1ccccc1 | 9.2 |
| O=S(=O)(c1ccc(F)cc1)N1CCN(C(=S)NC2CCCC2)CC1 | -11.7 |
| O=C(COC(=O)C1CC2CCCC(C1)C2=O)NC1CCCCC1 (stereo not shown) | 11.8 |
| CC1=C(c2ccc(C)cc2)S(=O)(=O)N(CC(=O)O)C1=O | -6.72 |
| C=CCSC1=N/C(=C\c2cc(OC)c3c(c2)OCO3)C(=O)S1 | 6.54 |
| CCCNC(=O)COC(=O)c1ccccc1C(=O)c1ccc(Cl)c([N+](=O)[O-])c1 | 9.9 |
| N#Cc1ccc(NC(=O)COC(=O)c2ccc(F)c(S(=O)(=O)N3CCOCC3)c2)cc1 | -10.8 |
| O=C(Nc1ccncc1)Nc1cccc(C(F)(F)F)c1 | -10.2 |
| COc1ccccc1OCC(=O)NCC1CCCN(Cc2cnn(C)c2C)C1 (stereo not shown) | 8.9 |
| CSCCC(NC(=O)c1ccccc1Cl)C(=O)OCC(=O)N1CCCC1=O (stereo not shown) | 10.9 |
| CN(c1cccc(NC(=O)c2cccc([N+](=O)[O-])c2)c1)S(C)(=O)=O | 13.1 |
| Cc1cccc2cc(C3CC(c4ccco4)=NN3S(=O)(=O)c3ccccc3)c(Cl)nc12 (stereo not shown) | -1.79 |
| N/N=C(\c1ccccc1)c1cc(Cl)ccc1N | 8.63 |
